The supplement of paper PMC3334620
In all, about 33,000 sequences were measured (“E-score (-0.5 to 0.5)”: median about -0.054, highest 2% from about 0.35 on). The list shows a part of the results.

Target: T1, Stb5 (UniProt P38699)
T1 sequence: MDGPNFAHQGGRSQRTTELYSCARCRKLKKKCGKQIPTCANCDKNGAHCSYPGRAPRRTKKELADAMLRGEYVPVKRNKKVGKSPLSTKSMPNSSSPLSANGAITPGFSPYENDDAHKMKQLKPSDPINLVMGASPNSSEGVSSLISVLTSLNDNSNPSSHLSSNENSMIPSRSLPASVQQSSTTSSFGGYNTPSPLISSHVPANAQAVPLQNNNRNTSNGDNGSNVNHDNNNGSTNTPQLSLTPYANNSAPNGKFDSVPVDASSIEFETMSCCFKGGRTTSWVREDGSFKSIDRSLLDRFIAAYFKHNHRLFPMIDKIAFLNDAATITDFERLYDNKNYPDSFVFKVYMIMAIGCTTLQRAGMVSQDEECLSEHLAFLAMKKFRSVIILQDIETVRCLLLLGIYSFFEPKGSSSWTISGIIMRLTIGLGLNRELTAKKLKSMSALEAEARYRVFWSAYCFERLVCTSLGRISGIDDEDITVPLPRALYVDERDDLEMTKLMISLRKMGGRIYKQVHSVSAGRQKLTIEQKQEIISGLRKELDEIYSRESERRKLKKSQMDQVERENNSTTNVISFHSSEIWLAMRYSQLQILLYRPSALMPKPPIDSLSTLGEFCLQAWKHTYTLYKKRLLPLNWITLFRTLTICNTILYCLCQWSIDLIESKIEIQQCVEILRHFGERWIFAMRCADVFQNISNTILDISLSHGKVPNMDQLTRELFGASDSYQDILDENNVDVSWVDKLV
Assay: PBM E-score (8-mer binding enrichment) (E-score (-0.5 to 0.5)); higher = stronger / more preferred TF binding; most listed sequences are background and not binding sites
Settings: protein concentration: 200 nM; construct: GST-full length
Experimental: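 Universal 'all 10-mer' protein binding microarrays (Agilent AMADID 015681) probed with GST-tagged S. cerevisiae TFs (full-length or DBD) made by in vitro transcription/translation (PURExpress), about 100-200 nM. Bound TF was detected with fluorescent anti-GST. Each ungapped 8-mer (which stands for itself and its reverse complement) is scored by the PBM enrichment score (E-score), a modified Wilcoxon-Mann-Whitney statistic from -0.5 to +0.5, computed with the Universal PBM Analysis Suite. Scale: above 0.35 generally sequence-specific binding.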

| Sequence | PBM E-score |
| --- | --- |
| AATTCATG | -0.117 |
| CCACTAGC | -0.114 |
| CAATGCCC | 0.225 |
| CACCGATC | 0.359 |
| AGGTGAAA | 0.0237 |
| ACTCACAA | -0.209 |
| GAACGCGC | 0.0925 |
| AGAGTGGA | -0.136 |
| GCGACGAC | -0.0667 |
| GCCGTTCA | 0.237 |
| GAGACCTA | -0.0713 |
| CCATAGAG | -0.189 |
| ACCACAAT | -0.132 |
| TTCACAAA | -0.00748 |
| CAGGGATA | -0.228 |
| CAGACGTA | -0.177 |
| GACCAAGA | -0.11 |
| AAACCGCC | 0.302 |
| GCTCATCC | -0.182 |
| CCCAGCTA | -0.236 |
| ACGCCCCC | -0.0024 |
| CGCACGTA | 0.098 |
| TTACCTAA | -0.0673 |
| GGGCGTAC | 0.14 |
| GAATATTA | 0.104 |

| Sequence | PBM E-score |
| --- | --- |
| CCAATGCG | -0.208 |
| ACCATTTA | -0.0471 |
| CTGCGGTA | 0.254 |
| GTTGAAGA | -0.158 |
| AGACGACA | -0.0617 |
| ATATCTGA | -0.135 |
| ACCATAAG | -0.0546 |
| GAGATTGA | -0.141 |
| CATTCCCA | -0.187 |
| ACCTGGAA | -0.28 |
| ATGCCGCA | 0.25 |
| CTAGCTCC | 0.179 |
| AGGTCCGA | 0.412 |
| ACTCTTCT | -0.167 |
| GAAGAGGA | -0.123 |
| AATGTCTC | 0.00508 |
| ATTCTAAG | 0.0878 |
| CCCTCCCC | 0.0568 |
| AACAATGA | 0.0501 |
| CCACCCCG | 0.266 |
| CCTCAAAC | 0.0209 |
| CAATGCGA | -0.15 |
| CGCCCAAC | -0.0675 |
| ACCGCTGG | 0.236 |
| AGGGACAG | -0.257 |

| Sequence | PBM E-score |
| --- | --- |
| AGAGTAAT | -0.033 |
| TCATTGCA | -0.116 |
| GAACTCGC | -0.267 |
| TCTCAACA | -0.119 |
| CCCGCGCC | 0.243 |
| AATTAGCG | 0.106 |
| AGAACGTA | -0.221 |
| AGTAGCCG | 0.112 |
| ACTTCCAG | -0.184 |
| AAAGTCAT | -0.114 |
| AGCCATTG | -0.242 |
| CACGAGGG | -0.118 |
| AGGACTAA | -0.0498 |
| AGATCCAC | -0.00803 |
| GAGCGGAA | 0.308 |
| AATGTGAC | -0.19 |
| ACAGGTAG | -0.174 |
| AGCAAGGA | -0.216 |
| CGTGTGCA | -0.0863 |
| AAACGCGC | -0.00342 |
| CACCCGTC | 0.14 |
| CAAGTGGG | -0.0971 |
| ACTCACTG | -0.21 |
| AAGTGTAA | -0.116 |
| CAACGGCC | 0.243 |

| Sequence | PBM E-score |
| --- | --- |
| AACAACAA | -0.219 |
| TACTGCTA | -0.195 |
| AGGGCCCT | -0.173 |
| ATCTGCTC | -0.117 |
| AAACACAT | -0.16 |
| GCAGGTTA | 0.0704 |
| AAATGACT | -0.216 |
| ACTGCGGG | 0.203 |
| ATCAGACG | -0.00265 |
| AGTCGTAC | -0.189 |
| ATCCTCGG | 0.0912 |
| TGGAGCAA | -0.26 |
| AGAATAGC | -0.0568 |
| GCGTTGAC | -0.0261 |
| ACGAGGGG | -0.208 |
| CCCAATAA | -0.186 |
| CCCAGGTA | -0.237 |
| CCCCTCGA | -0.121 |
| CAATGGGC | -0.188 |
| GCTTATAC | 0.106 |
| AGAGAGTA | 0.0964 |
| TCTGGAAA | -0.225 |
| GAGGCAAC | -0.0197 |
| GTTGGTAA | -0.172 |
| ACGTCCAA | 0.0581 |

| Sequence | PBM E-score |
| --- | --- |
| CGCTGCTA | 0.326 |
| TCCACCGA | 0.176 |
| AAGGGATG | -0.184 |
| CGTGGAGA | 0.102 |
| ATGAGCGG | 0.262 |
| GGCTTAAC | 0.172 |
| ACGATTCG | 0.0117 |
| GACACTAA | -0.0425 |
| AAGATCAA | -0.219 |
| GATCTCAC | -0.111 |
| CCGACTAA | 0.22 |
| TCTCGTCA | -0.14 |
| ATCTATGC | -0.0365 |
| GTTGCAAA | 0.0461 |
| AATTAATC | 0.0324 |
| AATAGCCA | -0.309 |
| CTGCATGC | -0.113 |
| AGGGTCTC | -0.26 |
| CTCCGCGC | 0.292 |
| AGTGCCTC | -0.215 |
| CGCGATAG | 0.0818 |
| AACAGCCC | 0.0328 |
| ATCGTACG | -0.0478 |
| AAACGCAC | 0.11 |
| GAGAACTC | -0.0853 |

| Sequence | PBM E-score |
| --- | --- |
| CCCAATGA | -0.219 |
| AAGGTGCT | -0.0966 |
| TCGAAAGA | -0.267 |
| GACTAGGC | -0.0407 |
| CTAAGCAC | 0.0693 |
| CTCCATCC | -0.185 |
| GGTATGGA | 0.185 |
| AACAACCA | -0.198 |
| CATCACGG | 0.132 |
| ACGCGTAG | 0.0586 |
| ATACAAGA | -0.14 |
| GGATCTAC | 0.0221 |
| AACTGACC | 0.0171 |
| CGATGTAA | 0.0356 |
| GCCCAAGC | -0.0482 |
| CACGGGAC | 0.187 |
| AATGCGAC | 0.138 |
| GGTCGCCA | -0.093 |
| AGTAGCGC | 0.215 |
| GCTTGGAC | -0.0988 |
| GCAGCCGC | 0.0245 |
| CTAAATTA | -0.0176 |
| AAAACTTG | -0.105 |
| CGGGCCAC | -0.0163 |
| CCATCCTA | -0.0996 |

| Sequence | PBM E-score |
| --- | --- |
| ATTAACCC | 0.327 |
| ACTAGTGA | -0.261 |
| TAGAATCA | -0.0379 |
| CTCCCTTA | -0.142 |
| CCCATGTC | -0.0944 |
| CTCGCCCC | 0.0443 |
| ATAATAAG | -0.0382 |
| TAGTAAGA | -0.179 |
| AGGCTAAC | -0.166 |
| CGGCGGTC | 0.355 |
| CCTCACTC | -0.127 |
| CAACACCC | -0.206 |
| GTGTTGTA | -0.122 |
| ACATCTAT | -0.0675 |
| CTCCAGAA | -0.0921 |
| AACAAGTC | -0.171 |
| AAGACATA | -0.185 |
| CTCGGGGA | 0.0793 |
| GGACATAA | 0.332 |
| AGCACCCC | -0.0285 |
| AGTGATGA | -0.175 |
| GTGAGTTA | -0.103 |
